The record followed here is publication PMC4336329 (PLoS ONE, 2015).

Among all 310,000 compounds or so, about 2,200 (0.71%) showed an effect of 50% or more. Effects have a minus sign here. This is one part of the list.

Sequence of human ether-à-go-go-related gene (hERG) potassium channel (Q12809 whole entry, looked up): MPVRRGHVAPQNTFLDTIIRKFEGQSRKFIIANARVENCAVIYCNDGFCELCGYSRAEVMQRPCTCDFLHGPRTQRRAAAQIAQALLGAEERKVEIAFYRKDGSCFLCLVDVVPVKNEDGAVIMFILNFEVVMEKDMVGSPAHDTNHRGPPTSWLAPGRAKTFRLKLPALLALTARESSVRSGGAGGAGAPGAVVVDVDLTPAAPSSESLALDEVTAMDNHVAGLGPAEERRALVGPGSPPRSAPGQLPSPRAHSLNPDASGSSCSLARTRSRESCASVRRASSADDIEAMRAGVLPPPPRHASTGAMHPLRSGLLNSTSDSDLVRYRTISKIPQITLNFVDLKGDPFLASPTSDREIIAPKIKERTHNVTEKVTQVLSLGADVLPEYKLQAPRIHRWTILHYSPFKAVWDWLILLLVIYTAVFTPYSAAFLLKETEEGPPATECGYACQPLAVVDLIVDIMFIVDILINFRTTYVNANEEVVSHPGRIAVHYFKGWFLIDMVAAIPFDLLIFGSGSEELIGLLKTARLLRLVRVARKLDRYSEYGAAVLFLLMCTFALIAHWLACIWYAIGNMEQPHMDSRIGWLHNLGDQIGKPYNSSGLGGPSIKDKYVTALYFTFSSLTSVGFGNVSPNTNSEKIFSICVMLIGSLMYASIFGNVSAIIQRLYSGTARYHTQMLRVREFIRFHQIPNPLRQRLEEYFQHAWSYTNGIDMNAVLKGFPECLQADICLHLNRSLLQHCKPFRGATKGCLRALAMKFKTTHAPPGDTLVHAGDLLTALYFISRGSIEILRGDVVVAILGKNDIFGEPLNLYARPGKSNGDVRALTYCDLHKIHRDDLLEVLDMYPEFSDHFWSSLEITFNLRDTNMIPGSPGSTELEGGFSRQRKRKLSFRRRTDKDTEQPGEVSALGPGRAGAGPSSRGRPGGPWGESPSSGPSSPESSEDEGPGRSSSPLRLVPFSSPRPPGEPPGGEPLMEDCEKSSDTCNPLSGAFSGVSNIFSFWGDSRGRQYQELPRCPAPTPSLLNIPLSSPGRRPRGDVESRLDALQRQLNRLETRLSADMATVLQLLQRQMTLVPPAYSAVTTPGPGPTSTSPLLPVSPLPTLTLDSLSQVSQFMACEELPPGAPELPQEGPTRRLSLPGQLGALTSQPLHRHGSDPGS

This test has as its target human ether-à-go-go-related gene (hERG) potassium channel (human, UniProt Q12809). The test can be described thus: primary screen, population patch clamp on CHO cells stably expressing hERG.
For `O=C(c1ccc(OC2CCN(Cc3ccccc3O)CC2)cc1)N1CCCCC1`, the “hERG current change (%, negative = inhibition) at 1uM” value is reported as 12.6%.
Under `c1coc(C2Nc3ccccc3C3OCCC23)c1` (stereo not shown) stands 9.46%.
For `CCN(CC)CCn1c2c(c(SCC(=O)Nc3cccc4ccccc34)nc1=O)CCC2` the value was -24.4%.
Under `O=c1[nH]c2ccc(S(=O)(=O)N3CCCCC3)cc2[nH]c1=O` stands 19.9%.
In the case of `CCOc1ccc(S(=O)(=O)N2CCN(C(=O)c3ccccc3Cc3ccccc3)CC2)cc1`, the “hERG current change (%, negative = inhibition) at 1uM” value is 9.23%.
Under `CCOc1cc(C(=O)O)cc(Cl)c1OCC#N` stands 7.96%; under `CC(Oc1cc2oc(=O)c3c(c2cc1Cl)CCC3)C(=O)NCCCN1CCOCC1` (stereo not shown), 13.3%; under `CCOc1ccc(C(=O)Nc2cnn(Cc3ccc(Cl)c(Cl)c3)c2)cc1`, 6.28%.
Under `COc1ccc(C(=O)Nc2nc(CC(=O)NCc3ccc(F)cc3)cs2)cc1` stands -4.82%.
On to `Cc1ccc2oc(=O)c3cnn(CC(=O)N4CCN(c5ccccc5)CC4)c3c2c1`, for which the “hERG current change (%, negative = inhibition) at 1uM” value was 6.42%.
Regarding `O=C(/C=C/c1ccc2ccccc2n1)N1CCN(c2ccccc2)CC1`, the “hERG current change (%, negative = inhibition) at 1uM” value is -26.3%.
For `CCOC(=O)CN(Cc1ccc(OC)c(OC)c1)S(=O)(=O)c1ccc(OC)cc1` the value was 3.25%.
Take `O=C(NC(c1ccccc1)c1c(O)ccc2ccccc12)c1ccccc1Cl` (stereo not shown): the “hERG current change (%, negative = inhibition) at 1uM” value is reported as 11.3%.
For `O=C(N/N=C\C=C\c1ccc2c(c1)OCO2)c1cccnc1` the value was -7.88%; for `COc1cccc2cc(C(=O)NCc3ccccc3Br)c(=O)oc12`, 19.6%.
Under `C=CCNC(=S)NNC(=O)c1ccc(OCC(C)C)cc1` stands -9.6%; under `CCOc1ccccc1NC(=O)CCNS(=O)(=O)c1ccc2[nH]c(=O)oc2c1`, 11.6%; under `CCOc1cc(/C=N\NC(=O)c2c(C)nc3ccccn23)ccc1O`, 14.9%.
Under `COc1ccc2c(c1)C1NC(=S)NC(C)(O2)C1C(=O)Nc1ccc(Cl)cc1` (stereo not shown) stands 1.68%; under `O=C(NCCCc1ccccc1)c1cnc2n(c1=O)CCS2`, 11%; under `COc1ccc(-c2nnn(CC(=O)N(CCCO)C(C(=O)NC3CCCC3)c3ccc(F)cc3)n2)cc1` (stereo not shown), 9.11%.
Consider `COC(=O)Cn1nnc(-c2cccc(OC)c2)n1`, for which the “hERG current change (%, negative = inhibition) at 1uM” value was -0.284%.
Under `Cc1ccc(NC(=O)n2ncc3c(C)cccc32)c(C)c1` stands 13.6%; under `COc1cccc(CN(C(=O)COc2ccc(C)cc2)C2CCS(=O)(=O)C2)c1` (stereo not shown), 6.26%.
For `CC1Nc2ncnc(N3CCOCC3)c2N(Cc2ccccc2)C1=O.O=C(O)C(F)(F)F` (stereo not shown) the value was 13%; for `O=C(NCCCCC(NC(=O)c1ccc([N+](=O)[O-])cc1)C(=O)O)c1ccc([N+](=O)[O-])cc1` (stereo not shown), -6.29%; for `COC(=O)[C@H](Cc1ccccc1)NC(=O)N1CCN(c2ccccc2)CC1`, 3.46%.
In the case of `CCOC(=O)c1ccc(NC(=S)NN2CCOCC2)cc1`, the “hERG current change (%, negative = inhibition) at 1uM” value turned out to be 0.0656%.
On to `CCOc1ccc(C(=O)N(Cc2ccc(N(C)C)cc2)C2CCS(=O)(=O)C2)cc1` (stereo not shown), for which the “hERG current change (%, negative = inhibition) at 1uM” value is listed as 0.167%.
For `CC1CN(C(=O)c2cc([N+](=O)[O-])cc([N+](=O)[O-])c2)CC(C)O1` (stereo not shown) the value was 15.1%.
On to `CNc1ccccc1-n1ccc(-c2ccccc2)n1`, for which the “hERG current change (%, negative = inhibition) at 1uM” value was 7.79%.
For `Cc1c(C(=O)/C=C/c2cccs2)oc2ccc(F)cc12` the value was 16.7%; for `CC(C)CC(=O)Nc1nc2ccc(S(=O)(=O)N3CCOCC3)cc2s1`, 8.91%; for `CC1(C)Cc2c(c(N3CCCC3)[nH]c(=S)c2C#N)CO1`, 8.08%.
Under `Cc1ccsc1/C=C(\C#N)C(=O)NCc1ccco1` stands 5.27%.
Turning to `COc1ccccc1-c1nnc(C2CCN(S(=O)(=O)c3ccc([N+](=O)[O-])cc3)CC2)o1`, the “hERG current change (%, negative = inhibition) at 1uM” value is -43.8%.
For `CC1=CC2=NC(=O)CC(C)(C(=O)N(CC(=O)NC(C)(C)C)C3CCCC3)N2C=C1` (stereo not shown) the value was 3.74%; for `c1ccc(-c2nc(-c3cccnc3)n[nH]2)cc1`, 9.51%.
Under `O=c1c2cc(Cl)ccc2[nH]c(=S)n1Cc1ccccn1` stands 15.5%.
For `CC(c1ccon1)N(C)C(=O)CCc1nnc(CCCCc2ccccc2)o1` (stereo not shown) the value was -9.32%; for `CCOC(=O)c1cccc(NC(=O)Nc2ccc(OCC)cc2)c1`, 5.89%.
For the compound `CCn1cc([N+](=O)[O-])c(C(=O)Nc2nc3ccc(OC)cc3s2)n1`, the “hERG current change (%, negative = inhibition) at 1uM” value was found to be 22.5%.
Under `CCCCn1c(CNC(=O)C23CC4CC(CC(C4)C2)C3)nnc1SCC(=O)Nc1nnc(C)s1` stands 5.13%; under `CCOc1ccc(Nc2nc3ccccc3c(=O)s2)cc1`, 13.9%.
Under `C=CCOc1ccc(C2N3CC4(C)CN2CC(CCC)(C3)C4=O)cc1` (stereo not shown) stands 5.52%; under `CCCCc1cc(=O)oc2cc(C)cc(OCC(=O)Nc3ccccn3)c12`, 24.5%.
Under `C=CCNC(=O)C1CC2Cn3c(nc4cc(C)c(C)cc43)C2N1C` (stereo not shown) stands 4.68%; under `COc1ccc(N2CCN(C(=O)COC(=O)CCOc3ccc(C(C)(C)C)cc3)CC2)cc1`, 22.1%.
With `Cc1cc(NC(=O)COC(=O)CNC(=O)c2cccs2)c([N+](=O)[O-])cc1C`, the “hERG current change (%, negative = inhibition) at 1uM” value was found to be 2.85%.
Consider `Cc1cc(C)c2c(n1)SCC(=O)N2CC(=O)Nc1ccc(F)cc1`, for which the “hERG current change (%, negative = inhibition) at 1uM” value was 2.57%.
For `COc1ccc(OCC(O)CNC(=O)c2ccc(OC)cc2)cc1` (stereo not shown) the value was 12.7%; for `O=C(Nc1ccc(S(=O)(=O)N2CCCCCC2)cc1)c1[nH]ncc1[N+](=O)[O-]`, 35%; for `COc1ccc(CC(=O)NC(C)c2nnc(SCC(=O)Nc3ccccc3)n2C)cc1` (stereo not shown), 12.5%.
Under `COc1cccc(OC)c1C(=O)Nc1cc(C)nn1-c1nc2ccccc2[nH]1` stands 11.7%.
Under `CCCCCn1c(SCC2CCCO2)nc2cc(C(=O)N3CCC(C(N)=O)CC3)ccc2c1=O` (stereo not shown) stands -33.9%.
